Experimental data: the RNAGym collection of RNA variant scans (doi:10.1093/nar/gkz1192)
Read counts are not given, so values of variants with three or more changes are uncertain.

B1: CPEB3 Ribozyme (parent)
chain: UAACAGGGGGCCACAGCAGAAGCGUUCACGUCGCAGCCCCUGUCAGAUUCUGGUGAAUCUGCGAAUUCUGCUGUAUAUCUC

Variants of: B1
Test: self-cleavage, relative activity (ratio to wild type); higher = more cleavage; in vitro, sequencing
Procedure, shortened: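 Barcoded CPEB3 ribozyme mutants, produced by rounds of error-prone PCR, self-cleaved while being transcribed with T7 RNA polymerase for 5 hours at 37°C and during a subsequent 15 min DNase I step before EDTA was added. Sequencing of template-switched cDNA on Illumina gave cleaved and total reads, and DNA sequencing assigned barcodes to variants. Each variant's relative activity is its cleaved/total read fraction divided by the unmutated ribozyme's fraction, averaged across three batches. A variant needed a minimum of 5 reads.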

Variant	self-cleavage
C11U A20G U43A G70C U76C	0.14
C11U A20G U67C	0.63
C11U A20G U67C C71U	0.11
C11U A20G U67G	0.09
C11U A20U A21G G55C A64G	0.13
C11U A20U G55U U66G U72A	0.09
C11U A20U U26C U48C U51C A64G A75G	0.03
C11U A20U U54C A64U U74A U76C	0.04
C11U A21G A57C U58C U69C U74G	0.05
C11U A21G C27A A47G A56G A57G	0.03
C11U A21G C27U A57G A65G	0.06
C11U A21G G55C A64G	0.16
C11U A21G U26A U58C U66C	0.12
C11U A21G U26C C39U U54C U58C U78C	0.03
C11U A21G U26C C59A A64G U76A	0.03
C11U A21G U31C U67G U72C	0.04
C11U A21G U72A	0.13
C11U A21U A28G U76C	0.04
C11U A21U C23U C40A U76C U78C	0.05
C11U A21U U25C	0.04
C11U A21U U54G	0.06
C11U A28C U51C U72A	0.29
C11U A28G A35U U72C U80C	0.19
C11U A28G C79A U80A	0.28

Variant	self-cleavage
C11U A28G G61U	0.06
C11U A28G U41C	0.4
C11U A28G U51C	0.14
C11U A28G U60C C79G	0.25
C11U A28G U67C A75U C79G	0.11
C11U A35C A65G	0.18
C11U A35C C40A G46U U80A	0.04
C11U A35G A56G	1.2
C11U A35G A77G	1.3
C11U A35G U67A	1.07
C11U A35G U72A	1.21
C11U A35U A45U U49C U69G U78A	0.12
C11U A35U U41C U43C A75U	0.13
C11U A45C A57C	0.06
C11U A45C U54A U72A	0.08
C11U A45G A57C U66C	0.06
C11U A45U A65U	0.4
C11U A47G U51A U58C	0.31
C11U A47U U48C U76A A77U	0.06
C11U A47U U66A U80C	0.05
C11U A56G A75G	0.11
C11U A56G C71U	0.11
C11U A57G U58C U69C	0.06
C11U A57U A75G	0.07

Variant	self-cleavage
C11U A64G U66C U69A	0.13
C11U A64U U80C	0.45
C11U A65G U69G U80C	0.1
C11U A77G C81U	0.57
C11U C12A C23A U26C G30U U66C U69C	0.07
C11U C12U C27A U58C U72A	0.08
C11U C12U U41C U72C	1.28
C11U C17G U25G U49C U54C A57G U67A	0.02
C11U C17U C32U A47G A56U A75G	0.03
C11U C23G U31C	0.05
C11U C23U U41C A45G	0.39
C11U C23U U43C C50U A56U U72A U78C	0.03
C11U C23U U51A U60A	0.16
C11U C27G U69A A77G	0.08
C11U C29G C32G U58C U60C G61U	0.04
C11U C29U U48C U60G	0.27
C11U C32A C44U U51C A77U U78C	0.11
C11U C32U A47C U60C A64G	0.14
C11U C34U G63U	0.09
C11U C37A C39A U72C	0.23
C11U C40A G46U U49A U67C	0.12
C11U C40G U43A C44U A65G	0.13
C11U C44A U48C	0.35
C11U C62U U72A U80A	0.09

Variant	self-cleavage
C11U G16U A20U C32U A35U	0.21
C11U G16U U25C C37U	0.05
C11U G19A A21U A45G	0.05
C11U G22U U41A U48C A65G	0.12
C11U G24A G61A U66C U72A	0.11
C11U G24A U25A A56G U60C U74C	0.15
C11U G24A U43C C50U A65G U78C	0.07
C11U G24A U54C U78C	0.04
C11U G24U U43C U54G U72C	0.18
C11U G30U C37U U48C U60C U66C	0.13
C11U G33A C38U A47G A56U A64G	0.04
C11U G33A C40G C44U A65G	0.11
C11U G36A U43C U60A U69A	0.09
C11U G36A U54A U69C	0.25
C11U G36C A45U U48A U49C	0.05
C11U G42A U51A U60G	0.09
C11U G46C U60C	0.13
C11U G63A U69C U72C	0.1
C11U G70A U72G	0.18
C11U U25A A75U	0.17
C11U U25A C50A A56G U60C U74C	0.31
C11U U25A U72C U80C	0.45
C11U U25C A28C A35G A45U U49A	0.06
C11U U25C A28U	0.04

Variant	self-cleavage
C11U U25C A35G A45G A77U	0.05
C11U U25C A35U U72A	0.05
C11U U25C C29U	0.44
C11U U25C U26C A56U G63A	0.28
C11U U25C U31C A35U A47G U66C	0.04
C11U U25C U31C U43C A64G U69A	0.07
C11U U25C U43C U66A	0.04
C11U U25C U60A A65G	0.09
C11U U25C U67C U80C	0.06
C11U U25G U48C	0.22
C11U U26A C37U	0.22
C11U U26A C44U U60A U78C	0.08
C11U U26C A28G A57G A65G U72C C79U	0.02
C11U U26C A35U G52U A56U A75U	0.03
C11U U26C A45U	0.09
C11U U26C U31C G55A A57U U67C	0.03
C11U U26C U41A C44A U49C	0.05
C11U U26C U51A U58A	0.05
C11U U31A A45U U76A A77G	0.09
C11U U31A C68A U78C	0.06
C11U U31A U51A	0.17
C11U U31C A45G A65G	0.11
C11U U31C A45U G46U	0.17
C11U U31C A65U U78A	0.13

Variant	self-cleavage
C11U U31C C32U U43C C62G	0.05
C11U U31C U48C A56U U69A	0.16
C11U U31C U51C U67C	0.06
C11U U31C U58C U60C A64G	0
C11U U31G U78C	0.14
C11U U41A U43C	0.21
C11U U41A U48C A65G	0.12
C11U U41A U60C	0.09
C11U U41C A47G U80A	0.44
C11U U41C U49A A77C	0.18
C11U U41C U49C	0.14
C11U U41C U72C	0.94
C11U U43C A47U A57G U69C G73A U80C	0.03
C11U U43C A56G U60C U76A U80C	0.11
C11U U43C A75G	0.43
C11U U43C U78A	0.19
C11U U48A U69C	0.2
C11U U48C A56U U69A	0.04
C11U U48C U51A U54C A56G	0.09
C11U U48C U67G	0.07
C11U U49A U72C	0.3
C11U U49C A64G G73A	0.25
C11U U49C A77G U80G	0.05
C11U U49C U51C U69A	0.09

Variant	self-cleavage
C11U U49C U58A	0.13
C11U U49C U67C	0.12
C11U U51C A56G C71U	0.18
C11U U51C A56G U74C	0.65
C11U U51C U58A A75G	0.08
C11U U54A U80C	0.62
C11U U58A U67C	0.11
C11U U60C U66C	0.26
C11U U60C U69C U72C U76C A77U	0.09
C11U U66C U78C	0.06
C11U U67A C79U	0.1
C12A A13G A18U	0.24
C12A A13G A35G C39G U67C C68G	0.09
C12A A13G A47G A65G G70U U78C	0.23
C12A A13G A57G	0.49
C12A A13G C32U U54G A57G U66C	0.18
C12A A13G U43A A47G U67G	0.05
C12A A13U A15G C32A U72A	0.08
C12A A13U A15U A20U U25A U41C A75G	0.1
C12A A13U A15U A21U U49C U69C	0.05
C12A A13U A35G A47G U72A	0.47
C12A A13U U43C A64G	0.5
C12A A15G A18G U72C A75U U80A	1.15
